The source of these data is PMC12040169 (PLOS Biology, 2025).

SMILES strings stand for the structures. This is one part of the list.

The subject of the experiment is T1, C. trachomatis L2/434/Bu expressing GFP (CTL2-GFP).
T1 construct: L2/434/Bu GFP intracellular growth in HeLa cells
On the set-up: species or system HeLa; C. trachomatis total inclusion area by high-content imaging, normalised to DMSO. Particulars: total inclusion area; 28.5 h, 10 µM; inhibitor. The procedure, abridged:
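After bulk GFP and resorufin fluorescence reads, cells were fixed, stained with Hoechst and imaged by high-content microscopy. Inclusion area and number (GFP) stood in for chlamydial growth, nuclei count (Hoechst) for host cell viability. MICs were derived as for the bulk readout.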
`CCNC(CO)c1ccccc1` (stereo not shown) [CBK061785]: the “% of control remaining” value is 19.1466.

Turning to `Cc1cc(C(F)(F)F)nc2sc(C(=O)c3ccc4c(c3)OCO4)c(N)c12` [CBK074388], the “% of control remaining” value came out at 52.0329.

Take `O=C(O)CCC(=O)Nc1ccc(Sc2ccc([N+](=O)[O-])cc2)cc1` [CBK020438]: the “% of control remaining” value was 95.1271.

As for `O=C(O)c1ccc(S(=O)(=O)NCC2CCCO2)cc1` (stereo not shown) [CBK262364], the “% of control remaining” value came out at 105.2.

`Cc1ccc(C)c(C2CCCN2C(=O)c2cccn(CC(=O)NC3CCCCC3)c2=O)c1` (stereo not shown) [CBK286010]: the “% of control remaining” value is given as 114.21.

Regarding `Nc1ccn([C@H]2C[C@@H](O)[C@@H](CO)O2)c(=S)n1` [CBK201187], the “% of control remaining” value turned out to be 115.667.

For the molecule `CCCNC(=O)CN(C)CC(=O)Nc1sc2c(c1C#N)CCC(C)C2` (stereo not shown) [CBK305845], the “% of control remaining” value came to 41.9175.

Consider `O=C(Nc1ccc2c(c1)OCCO2)c1cnccn1` [CBK220830], for which the “% of control remaining” value worked out at 92.5481.

As to `CS(=O)(=O)N(CC(=O)Nc1ccccc1F)c1ccc(I)cc1` [CBK265265], the “% of control remaining” value is 98.0965.

Take `O=C(O)C1Cc2nc[nH]c2C(c2ccc(F)cc2)N1` (stereo not shown) [CBK286970]: the “% of control remaining” value came out at 77.3572.

With `CCCN1CCN(C(=O)c2ccc(=O)n(C)c2)C(Cc2ccccc2-c2ccccc2)C1=O` (stereo not shown) [CBK285836], the “% of control remaining” value is 101.328.

On to `COc1ccc(C(=O)Cn2nc3nnc(-c4ccccc4)c(-c4ccccc4)n3c2=O)cc1` [CBK286181], for which the “% of control remaining” value stood at 123.837.

For `COC(=O)c1sc(NC(=O)c2cccnc2)c(C#N)c1C` [CBK265007], the “% of control remaining” value was determined as 91.2972.

In the case of `CC(=O)Nc1cccc(NC(=O)N2CCN(C3CCN(C)CC3)CC2)c1` [CBK155901], the “% of control remaining” value was determined as 78.2728.

On to `O=C(Nc1ccc(Cl)cc1)C(Cc1ccccc1)N1C(=O)c2cc(Cl)c(Cl)cc2C1=O` (stereo not shown) [CBK264172], for which the “% of control remaining” value is 98.0643.

Regarding `Cc1cc(C)c(NC(=O)C2CCCCN2C23CC4CC(CC(C4)C2)C3)c(C)c1` (stereo not shown) [CBK261559C], the “% of control remaining” value came out at 93.4001.

Turning to `Cc1nc2ccccc2c(=O)n1Cc1cccnc1` [CBK288092], the “% of control remaining” value amounted to 87.5758.

As to `NC(=S)N1N=C(c2ccccc2)CC1c1ccccc1` (stereo not shown) [CBK288435], the “% of control remaining” value was determined as 51.261.

For the molecule `O=C(CCC1CCCCC1)Nc1c[nH]c(=O)[nH]c1=O` [CBK287867], the “% of control remaining” value was determined as 61.5951.

For `O=C(O)C1CSC(c2ccc(-c3cccc(Cl)c3)o2)N1` (stereo not shown) [CBK286997], the “% of control remaining” value came to 87.3741.

`Oc1cccc(OCCOc2nccc(C(F)(F)F)n2)c1` [CBK115903]: the “% of control remaining” value is given as 94.1191.

On to `CCCc1nn(CC(=O)N2CCCC2)c(=O)c2cc3ccsc3n12` [CBK284145], for which the “% of control remaining” value was determined as 85.385.

On to `COc1ccc(CCC(C)NC2CCCc3c2[nH]c2ccc([N+](=O)[O-])cc32)cc1` (stereo not shown) [CBK262876], for which the “% of control remaining” value amounted to 16.7511.

Turning to `O=C(NC(C(=O)N/N=C/c1coc2ccccc2c1=O)c1n[nH]c(=O)c2ccccc12)c1ccccc1` (stereo not shown) [CBK262847], the “% of control remaining” value turned out to be 88.2569.

For `OC1(Cn2ccc3ncccc32)CCN(Cc2cccs2)CC1` [CBK284783], the “% of control remaining” value stood at 77.9519.

`O=C(O)/C=C/c1ccccc1OCC(=O)NC1CCCCC1` [CBK286900]: the “% of control remaining” value amounted to 57.014.

Take `Cc1oc(C(=O)N2CCc3sccc3C2c2ccccc2)cc1CN1CCOCC1` (stereo not shown) [CBK285566]: the “% of control remaining” value was 88.2733.

For the molecule `COc1cccc(Cn2c(=O)n(C)c3ncccc32)c1` [CBK282391], the “% of control remaining” value came out at 82.6049.

Take `COc1ccc(-c2cn(-c3cccc(NC(C)=O)c3)nn2)cc1` [CBK113008]: the “% of control remaining” value was found to be 92.8323.

With `COc1cccc(C2(C(=O)N3CCc4nc[nH]c(=O)c4C3)CC2)c1` [CBK304488], the “% of control remaining” value is 62.819.

Turning to `O=C(c1cscn1)N1CCCc2ccccc21` [CBK200348], the “% of control remaining” value is given as 67.4277.

For `O=C(Nc1ccc(-c2nnc(-c3ccco3)o2)cc1)C(c1ccccc1)c1ccccc1` [CBK263452], the “% of control remaining” value is recorded as 111.687.

As for `O=C1CCC(=O)N1CCOc1nccnc1N1CCN(Cc2ccc([N+](=O)[O-])cc2)CC1` [CBK084294], the “% of control remaining” value is recorded as 91.9347.

Take `COC(=O)c1cc(C#N)c(=O)n(CC(O)COc2ccccc2)c1` (stereo not shown) [CBK304991]: the “% of control remaining” value came to 5.422.

For `O=C(NCCn1nc(-c2cccs2)ccc1=O)c1ccco1` [CBK283838], the “% of control remaining” value is recorded as 81.3875.

Turning to `COc1ccc(CNC(=O)CSc2cnn[nH]2)cc1` [CBK269881], the “% of control remaining” value was determined as 62.7998.

As for `CC1SC2(C(=O)Nc3ccccc32)N(c2ccc(F)cc2)C1=O` (stereo not shown) [CBK093463], the “% of control remaining” value is 104.929.

Consider `COc1ccc(Nc2ccc(-c3ccsc3)cn2)c(C)c1` [CBK036855], for which the “% of control remaining” value was 74.2719.

For the molecule `CN(Cc1ccc2c(c1)OCCO2)C(=O)CSc1n[nH]c(=O)n1Cc1ccccc1` [CBK297876], the “% of control remaining” value is given as 77.1405.

Consider `Clc1ccccc1-c1nccnc1NCc1cccs1` [CBK037362], for which the “% of control remaining” value was found to be 127.099.

Take `Cc1cc(Cl)cc(Cl)c1S(=O)(=O)Nc1nc2c(s1)C(=O)CC(C)(C)C2` [CBK200034]: the “% of control remaining” value came to 96.4944.

Consider `Cc1nc(CCC(=O)N2Cc3cnn(Cc4ccc(F)cc4)c3C2)n[nH]1` [CBK306993], for which the “% of control remaining” value worked out at 78.2766.

For the molecule `COc1ccccc1NC(=O)c1sc2ncn(CC(=O)NC3CCCCC3)c(=O)c2c1C` [CBK265788], the “% of control remaining” value worked out at 106.435.

Take `Cc1cc(F)c(S(N)(=O)=O)cc1NC(=O)c1ccc(CN2CCOCC2)o1` [CBK059376C]: the “% of control remaining” value is 104.545.

With `CC(=O)Nc1ccc(Nc2cc(-c3ccc(CC(C)C)cc3)ncn2)cc1` [CBK090723], the “% of control remaining” value came out at 125.255.

As for `CC(C)Cn1cncc1CNC(=O)Nc1ccc2c(cnn2C)c1` [CBK307405], the “% of control remaining” value stood at 94.9533.

On to `NC1CCC(Nc2cncc(-c3ccc(F)c(Cl)c3)n2)CC1` (stereo not shown) [CBK037893], for which the “% of control remaining” value is on record as 60.5491.

For the molecule `O=C(Cc1ccsc1)N1C[C@@H]2CCCCN(CC3CC3)[C@@H]2C1` [CBK285507], the “% of control remaining” value is 86.0386.

Take `COc1cc(CN2CCCCC2CO)c([N+](=O)[O-])cc1OC` (stereo not shown) [CBK261730]: the “% of control remaining” value was 101.594.

As to `COc1ccc(CCN(CCc2ccccc2)CC(O)COc2cccc3c2CCCC3)cc1` (stereo not shown) [CBK024506T], the “% of control remaining” value is 38.9567.

For the molecule `Cc1ccn2c(NS(=O)(=O)c3ccc(CCC(=O)O)cc3)c(-c3cccs3)nc2c1` [CBK297480], the “% of control remaining” value stood at 68.9047.

`O=[N+]([O-])c1ccc(CN2C[C@H](O)C[C@H]2c2nc(-c3ccccc3)no2)cc1` [CBK288833]: the “% of control remaining” value turned out to be 96.8096.

Regarding `Cc1cc(C)nc(NC2=NC(=O)CC(C(=O)O)N2c2ccc(Cl)cc2Cl)n1` (stereo not shown) [CBK286968], the “% of control remaining” value is on record as 124.022.

`COc1ccc(-c2cc(Nc3ccc(N(C)C)cc3)ncn2)cc1OC` [CBK036969]: the “% of control remaining” value was 73.4708.

With `CC(Oc1ccc(F)cc1)C(=O)Nc1ccc(S(N)(=O)=O)cc1` (stereo not shown) [CBK265506], the “% of control remaining” value is given as 84.7543.

For `COCC(=O)N1CCc2sccc2C1c1ccc(NCc2cccc(OC)c2)cc1` (stereo not shown) [CBK286454], the “% of control remaining” value is 106.896.

With `O=C(CN1C(=O)c2ccc([N+](=O)[O-])cc2C1=O)Nc1cc(Cl)ccc1C(=O)O` [CBK263472], the “% of control remaining” value is recorded as 38.5855.

Regarding `COCCNS(=O)(=O)c1cccc2c1CN(C(=O)CC1CCCC1)CC2` [CBK306982], the “% of control remaining” value came out at 86.1339.

Turning to `COc1ccc(S(=O)(=O)N2CCN(C(=O)c3cc(-c4ccncc4)nc4c(C)c(Cl)ccc34)CC2)cc1` [CBK267739], the “% of control remaining” value came out at 113.408.

With `CNC(=O)c1ccc(-c2cc(OC)c(OC)c(OC)c2)nc1NCCOC` [CBK105997], the “% of control remaining” value is recorded as 114.85.

Consider `COc1ccc(OC)c(CN2CCN(CCCc3ccccc3)CC2)c1` [CBK264304], for which the “% of control remaining” value is listed as 86.5566.

As to `CC(C)C[C@@H]1N[C@H](C(=O)NCc2cccnc2)Cc2c[nH]c3cccc1c23` [CBK289418], the “% of control remaining” value came to 103.781.

Take `COc1cccc(NC(=O)c2cnc(-c3ccc(Cl)cc3)c(-c3ccco3)c2)c1OC` [CBK037428]: the “% of control remaining” value is on record as 115.897.

Regarding `Cc1nn(Cc2cccc(C(=O)Nc3ccc(S(=O)(=O)N4CCCCC4)cc3)c2)c(C)c1Cl` [CBK265815], the “% of control remaining” value was found to be 94.5246.

`CC(=O)Nc1ccc(CNC(=O)CN(C)Cc2cc(C)on2)cc1` [CBK307042]: the “% of control remaining” value is 65.0513.

As to `Cc1[nH]c2ccccc2c1C(c1ccccc1OCC(=O)O)c1c(C)[nH]c2ccccc12` [CBK266038], the “% of control remaining” value is 106.53.

On to `CN(C)c1ccc(-c2nccnc2NCc2ccc(S(C)(=O)=O)cc2)cc1` [CBK036902], for which the “% of control remaining” value is 85.3317.

In the case of `COc1ccccc1CN(C)C(=O)Nc1ccc(S(N)(=O)=O)cc1` [CBK306026], the “% of control remaining” value was determined as 33.1444.

Regarding `Nc1ncc(-c2ccc(C(=O)N3CCOCC3)cc2)nc1C(=O)NC1CCCCC1` [CBK149160], the “% of control remaining” value stood at 100.76.

For `O=C(NCc1cccc2ccccc12)N1CCCC(CO)C1` (stereo not shown) [CBK156035], the “% of control remaining” value was found to be 99.0247.

As to `COCCN(CC1CC1)C(=O)NCc1cccc(Cl)c1` [CBK304368], the “% of control remaining” value stood at 14.8903.

Regarding `CCOC(=O)C1=CC2C(=NC3=C2CCCC3)C=C1` (stereo not shown) [CBK009652], the “% of control remaining” value came out at 67.5427.

For `COc1cc(C)nc(NN)n1` [CBK262078], the “% of control remaining” value is reported as 89.1364.

`COc1ccccc1C1(NC(=O)c2c(C)noc2C)CCCC1` [CBK283644]: the “% of control remaining” value is listed as 112.511.

Consider `COc1ccc(-c2cc(Nc3ccc(OC)cc3OC)ncn2)cc1` [CBK090763], for which the “% of control remaining” value is 12.8392.

Consider `NC(=O)COc1ccc(/C=C/c2cc(C(F)(F)F)[nH]c(=O)n2)cc1` [CBK269475], for which the “% of control remaining” value is recorded as 111.066.

With `O=C(NCCc1c[nH]cn1)N1CCN(c2ccc(F)cc2)CC1` [CBK156394], the “% of control remaining” value worked out at 99.5285.

For `NS(=O)(=O)c1ccc(NC(=S)NNS(=O)(=O)c2ccc(Br)cc2)cc1` [CBK266928], the “% of control remaining” value is 97.1076.

`CCCNC(=O)Cn1cnc2sc(C(=O)Nc3ccc(OCC)cc3)c(C)c2c1=O` [CBK071920]: the “% of control remaining” value is 97.9372.
